According to PubChem BioAssay AID1768 (National Center for Advancing Translational Sciences (NCATS), 2009):
In all, about 270,000 compounds went through this assay and about 620 (0.23%) were called active. Inconclusive results, whose numbers are uncertain, are shown with a selection of clear calls. Calls follow the shape of the dose curve; as a rule, active = well fitted inhibition curve with a large enough effect in the polarisation, with a control signal flat (not every such curve was filed as active); inconclusive = small, poorly fitted or top-dose-only effect, or effect the other way, or a change in a side signal; inactive = no such curve, though single readings can be large or run the other way; the % refers to the polarisation. A potency beside an inconclusive call is a rough fit, not a confirmed value. “Side channel” marks fits to a control or component signal instead of the main read-out.
Potency is read from the fitted curve at half-maximal effect; tags tell the direction and shape of the fitted curve or compound fluorescence and quenching.

The molecules below were run against Menin (Homo sapiens) (UniProt O00255) (assay: qHTS Assay for Inhibitors Targeting the Menin-MLL Interaction in MLL Related Leukemias: Competition With Texas Red Labeled MLL-derived Mutant Peptide). Details: fluorescence polarization; series mostly up to 61.6 µM.
Sequence of UniProt O00255 (O00255 whole entry, looked up): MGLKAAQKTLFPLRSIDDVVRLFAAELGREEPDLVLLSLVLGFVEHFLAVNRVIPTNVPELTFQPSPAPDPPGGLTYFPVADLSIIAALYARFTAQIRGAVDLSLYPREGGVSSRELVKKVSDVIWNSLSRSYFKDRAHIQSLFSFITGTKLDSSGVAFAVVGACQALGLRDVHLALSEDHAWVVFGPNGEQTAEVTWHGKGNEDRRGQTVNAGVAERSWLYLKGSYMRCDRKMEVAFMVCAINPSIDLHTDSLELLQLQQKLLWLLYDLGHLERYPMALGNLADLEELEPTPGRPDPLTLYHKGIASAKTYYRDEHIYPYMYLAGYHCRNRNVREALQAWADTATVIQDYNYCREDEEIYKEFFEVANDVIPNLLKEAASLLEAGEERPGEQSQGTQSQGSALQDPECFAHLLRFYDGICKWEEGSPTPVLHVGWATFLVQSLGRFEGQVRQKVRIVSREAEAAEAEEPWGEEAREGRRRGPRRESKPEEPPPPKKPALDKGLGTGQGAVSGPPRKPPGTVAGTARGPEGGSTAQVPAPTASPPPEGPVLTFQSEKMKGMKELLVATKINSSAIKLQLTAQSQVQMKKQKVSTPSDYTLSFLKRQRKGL
In the case of COc1ccc(OC)c(NC(=O)c2cc(-c3c(C)cc(C)cc3O)n[nH]2)c1, the Potency is reported as inconclusive: 39.8 µM [fluorescent, single point]. O=C(c1ccc(-c2ccccc2)cc1)C1CCCN(Cc2ccncc2)C1 (stereo not given) was tested, and the Potency was inconclusive: 14.1 µM [quencher, side channel, partial curve]. In the case of Cc1[nH]n(-c2ccccc2)c(=O)c1/C=N/N(c1ccccc1)c1ccccc1, the Potency is reported as inconclusive: 39.8 µM [quencher, side channel, single point]. COc1ccc(-c2csc(Nc3ccc(S(N)(=O)=O)cc3)n2)cc1OC was tested, and the Potency was inconclusive: 25.1 µM [quencher, side channel, partial curve]. O=C(NCc1cn(-c2ccccc2)nc1-c1ccccc1)c1ccc([N+](=O)[O-])cc1 was tested, and the Potency was inconclusive: 8.91 µM [quencher, side channel, full curve, poor fit]. With Cc1cc(C(=O)CSc2nnnn2-c2ccc(O)cc2)c(C)n1C the Potency was inconclusive: 39.8 µM [inhibitor, single point]. Nc1c(C(=O)OCC2CCCO2)c2nc3ccccc3nc2n1-c1ccc2c(c1)OCCO2 (stereo not given) was tested, and the Potency was inconclusive: 17.8 µM [inhibitor, partial curve]. With N#Cc1c(NC(=O)COC(=O)C2CC3C=CC2C3)oc(-c2ccccc2)c1-c1ccccc1 (stereo not given) the Potency was inconclusive: 31.6 µM [inhibitor, single point]. O=C(CSc1nnc(-c2cccnc2)n1-c1ccccc1)Nc1ccc2c(c1)OCO2 was tested, and the Potency was “inactive”. CCOC(=O)C1CCN(C(=O)CCc2c(C)nc3cc(-c4ccc(OC)cc4OC)nn3c2C)CC1 was tested, and the Potency was inconclusive: 11.2 µM [fluorescent, side channel, partial curve]. O=C(CNC(=S)NC(=O)c1ccc(Cl)cc1)c1ccccc1 was tested, and the Potency was inconclusive: 39.8 µM [inhibitor, single point]. COc1ccc2c(c1OC)C(=O)N1C2SC(C)(C)[C@H]1C(=O)NCCCOC(C)C (stereo not given in full) was tested, and the Potency was inconclusive: 39.8 µM [inhibitor, single point]. Cc1ccc(-c2ccc(CCC(=O)O)n2-c2cccc(O)c2)cc1 was tested, and the Potency was inconclusive: 31.6 µM [quencher, side channel, single point]. In the case of Cc1cccc(NC(=S)Nc2ccc(Cl)c(Cl)c2)c1, the Potency is reported as inconclusive: 28.2 µM [quencher, side channel, single point]. Nc1c(Cl)nc(-c2ccccc2)nc1Cl was tested, and the Potency was inconclusive: 39.8 µM [quencher, side channel, single point]. Cn1c(-c2ccccc2O)cc2ccccc21 was tested, and the Potency was inconclusive: 20 µM [quencher, side channel, partial curve]. With COc1ccc(/C=C/C(=O)c2cc(F)ccc2OC(=O)c2ccccc2OC)cc1OC the Potency was inconclusive: 2 µM [fluorescent, side channel, partial curve]. With Oc1ccc(CCC2CCCCN2Cc2nc(C3CC3)no2)cc1 (stereo not given) the Potency was inconclusive: 8.91 µM [inhibitor, full curve, poor fit]. For Cc1ccc2c(CN(C)Cc3cccc(F)c3)cc(=O)oc2c1, the Potency was inconclusive: 25.1 µM [fluorescent, side channel, partial curve]. Fc1cc(Br)ccc1NC(=S)NCCc1ccccc1 was tested, and the Potency was inconclusive: 12.6 µM [quencher, side channel, partial curve]. In the case of CCCCc1cc(=O)oc2cc(C)c(CN3CCCC3)c(O)c12, the Potency is reported as inconclusive: 31.6 µM [quencher, side channel, single point]. For O=C(O)c1ccc(C2NCC(c3ccccc3Cl)c3c2[nH]c2ccccc32)cc1 (stereo not given), the Potency was inconclusive: 35.5 µM [quencher, side channel, single point]. For CC(=O)Nc1ccc(OCCOc2ccc(/C=C3\C(=N)N4N=C(C(C)C)SC4=NC3=O)cc2)cc1, the Potency was inconclusive: 14.1 µM [quencher, side channel, single point]. For CCc1cccc(C)c1NC(=O)CN(C)Cc1ccc(Br)cc1, the Potency was inconclusive: 4.47 µM [fluorescent, side channel, full curve, poor fit]. O=C(O)c1ccccc1C(=O)Nc1ccc(Oc2cccc3ccccc23)cc1 was tested, and the Potency was inconclusive: 31.6 µM [quencher, side channel, partial curve]. In the case of Cc1nc2ccc([N+](=O)[O-])cc2c(=O)n1Cc1cccc(Br)c1, the Potency is reported as inconclusive: 25.1 µM [quencher, side channel, partial curve]. COCCn1cnc2cc(C)c(C)cc21 was tested, and the Potency was inconclusive: 1.41 µM [inhibitor, full curve]. CCCCCCCCCCS(=O)(=O)N/N=C/c1ccc(O)cc1 was tested, and the Potency was inconclusive: 39.8 µM [quencher, side channel, single point]. For COc1ccccc1Oc1nc(-c2cccnc2)nc2ccccc12, the Potency was inconclusive: 35.5 µM [fluorescent, side channel, partial curve]. COC(=O)c1cc2ccccc2c(-c2c(O)ccc3ccccc23)c1O was tested, and the Potency was inconclusive: 20 µM [quencher, side channel, single point]. With CCOC(=O)c1sc(NC(=O)c2cccc(S(=O)(=O)N(CC)CC)c2)cc1C the Potency was inconclusive: 7.08 µM [quencher, side channel, partial curve]. With O=C(/C=C/c1ccco1)NCC(=O)N/N=C/c1ccc([N+](=O)[O-])cc1 the Potency was inconclusive: 28.2 µM [quencher, side channel, partial curve]. For CC(=O)N1CCc2cc(S(=O)(=O)Nc3ccc(C)cc3C)ccc21, the Potency was inconclusive: 1.26 µM [inhibitor, full curve, poor fit]. With COc1cc(OC)cc(C(=O)Nc2nc3ccccc3[nH]2)c1 the Potency was inconclusive: 35.5 µM [quencher, side channel, partial curve]. With CCc1nc(N2CCN(C(=O)c3ccco3)CC2)c2oc3ccccc3c2n1 the Potency was inconclusive: 22.4 µM [fluorescent, side channel, single point]. CCN(CC)c1ccc(N=Cc2ccc([N+](=O)[O-])o2)cc1 was tested, and the Potency was inconclusive: 12.6 µM [inhibitor, partial curve]. For COc1ccccc1-c1coc2c(CN3CCCC(C)C3)c(O)ccc2c1=O (stereo not given), the Potency was inconclusive: 1.78 µM [inhibitor, full curve]. CCN(CC)C(=O)Oc1ccc2c(=O)c(-c3ccc(OC)cc3)coc2c1 was tested, and the Potency was inconclusive: 7.94 µM [fluorescent, side channel, full curve, poor fit]. With O=C(COc1cccnc1[N+](=O)[O-])Nc1ccccc1Sc1ccccc1 the Potency was inconclusive: 22.4 µM [quencher, side channel, partial curve]. COc1ccc(NC(=O)c2ccc(NS(=O)(=O)c3cccc4cccnc34)cc2)cc1 was tested, and the Potency was inconclusive: 35.5 µM [quencher, side channel, single point]. In the case of CCOc1cccc(CNc2ccc(O)cc2)c1OCc1ccc(Cl)cc1Cl, the Potency is reported as inconclusive: 39.8 µM [quencher, single point]. With CNC(=S)NNc1ccccc1[N+](=O)[O-] the Potency was inconclusive: 28.2 µM [quencher, side channel, partial curve]. With Cc1cc(C(F)F)n2ncc(C(=O)NCc3ccccc3C(F)(F)F)c2n1 the Potency was inconclusive: 22.4 µM [inhibitor, single point]. With Cc1ccc(OCC(=O)N(c2ccccn2)C2CCCCC2)c(C)c1 the Potency was inconclusive: 20 µM [fluorescent, side channel, single point]. For COc1ccc(NC(=O)Cn2nnc(-c3ccccc3NS(=O)(=O)c3ccccc3)n2)cc1, the Potency was inconclusive: 7.94 µM [quencher, side channel, partial curve]. With O=C(Nc1nccs1)C1CC=CC2CCN(Cc3ccc(Cl)c(Cl)c3)C(=O)C21 (stereo not given) the Potency was “inactive”. For CN(C)c1ccc(/C=C2\SC(=O)N(CC(O)Cn3c4ccccc4c4ccccc43)C2=O)cc1 (stereo not given), the Potency was inconclusive: 28.2 µM [quencher, side channel, single point]. In the case of CCOC(=O)Nc1ccc2c(c1)N(C(=O)CCN(C)C)c1ccccc1CC2, the Potency is reported as inconclusive: 39.8 µM [inhibitor, single point]. With O=C1OCCN1C(=O)[C@H]1[C@H](c2ccccc2)C(c2cccc(Cl)c2)=NN1c1ccccc1 the Potency was inconclusive: 7.08 µM [quencher, side channel, single point]. With COc1ccc2cc(C(N)=O)/c(=N\NC(=O)c3ccccc3)oc2c1 the Potency was inconclusive: 39.8 µM [fluorescent, side channel, single point]. With CN1CCN(C2=Nc3ccccc3Oc3ccc(Cl)cc32)CC1 the Potency was inconclusive: 14.1 µM [fluorescent, side channel, partial curve]. With O=c1c(-c2ccc(F)cc2)coc2c3c(ccc12)OCCO3 the Potency was inconclusive: 3.55 µM [inhibitor, partial curve]. With Cc1ccc(C2C(N)C(=O)N2c2ccc(C)cc2)cc1 (stereo not given) the Potency was inconclusive: 12.6 µM [fluorescent, side channel, partial curve]. In the case of COc1ccc(N2CCN(CC(=O)c3ccc(O)c(C)c3O)CC2)cc1, the Potency is reported as inconclusive: 8.91 µM [quencher, side channel, partial curve]. CC(=O)Nc1ccc(Nc2cc(C)nc3c(-c4ccc(Cl)cc4)cnn23)cc1 was tested, and the Potency was inconclusive: 22.4 µM [quencher, side channel, partial curve].
